In PubChem BioAssay AID256 (DTP/NCI, 2004):
Inconclusive results and toxic doses are left out. A number of entries come with more than one value. The list is limited to them. An entry can have further records. The records of an entry do not match, cause unknown; they may come from other doses, times, organisms or constructs than stated.

Test system: CD2F1 mice, L1210 leukemia ip, survival T/C
Assay: NCI In Vivo Anticancer Drug Screen. Data for tumor model L1210 Leukemia (intraperitoneal) in CD2F1 (CDF1) mice
Conditions: higher = longer survival
Method: The antitumor activity of compounds was measured in mice bearing transplantable tumors. Survival or tumor size were measured and the results are expressed as the measurement made in the treated group (T) divided by the measurement made in the vehicle treated control group (C). The tumor model used in this assay is L1210 Leukemia (intraperitoneal) in CD2F1 (CDF1) mice

In the case of COc1cccc2c1C(=O)c1c(O)c3c(c(O)c1C2=O)C[C@@](O)(C(=O)CO)C[C@@H]3OC1CC(N)C(O)C(C)O1 (stereo not given in full), the T/C (endpoint: mean survival time, dose: 1.56 mg/kg/injection, schedule: Q01DX009 (ip), vehicle: water) is reported as 118 % of control and 155 % of control, the T/C (endpoint: mean survival time, dose: 9.0 mg/kg/injection, schedule: Q01DX001 (ip), vehicle: saline) is reported as 114 % of control and 155 % of control and the T/C (endpoint: median survival time, dose: 16.0 mg/kg/injection, schedule: Q04DX003 (ip), vehicle: water) is reported as 98 % of control and 154 % of control.
O=C(O)Cc1cccc2c(=O)cc(-c3ccccc3)oc12 was tested, and the T/C (endpoint: median survival time, dose: 150.0 mg/kg/injection, schedule: Q01DX009 (ip), vehicle: sodium bicarbonate) was 124 % of control and 170 % of control.
COc1cccc2c1C(=O)c1c(O)c3c(c(O)c1C2=O)CC(O)(C(=O)CO)CC3OC1CC(N)C(O)C(C)O1.[Cl][Pt+2][Cl].[NH2-].[NH2-] (stereo not given) was tested, and the T/C (endpoint: median survival time, dose: 16.0 mg/kg/injection, schedule: Q04DX003 (ip), vehicle: DMSO) was 94 % of control and 167 % of control.
